Changes are numbered by the printed parent chain; changes in the protein carry UniProt numbers. The list shows a part of the results.
T1: RBFOX1 RRM RbFoxmut (Fox-RRM*) (Homo sapiens, UniProt Q9NWB1 109-208, R118D;E147R;N151S;E152T)
T1 sequence: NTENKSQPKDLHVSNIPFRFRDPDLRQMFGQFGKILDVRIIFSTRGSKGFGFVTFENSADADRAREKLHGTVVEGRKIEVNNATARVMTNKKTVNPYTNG

B1: CUAGGAU (DNA:RNA)
RNA: GGGAGACCGGAAUUCAGAUUGUCCCUAGGAUUUAAAUCCCGUCGUAGCCACCA
DNA 1: CAATCTGAATTCCGGTCTCCC
DNA 2: TGGTGGCTACGACGGGATT
B2: ACGUGAU (DNA:RNA)
RNA: B1 RNA with C25A, U26C, A27G, G28U
DNA 1: CAATCTGAATTCCGGTCTCCC
DNA 2: TGGTGGCTACGACGGGATT
B3: CGGGCGU (DNA:RNA)
RNA: B1 RNA with U26G, A27G, G29C, A30G
DNA 1: CAATCTGAATTCCGGTCTCCC
DNA 2: TGGTGGCTACGACGGGATT
B4: ACGUUCC (DNA:RNA)
RNA: GGGAGACCGGAAUUCAGAUUGUCCACGUUCCUUAAAUCCCGUCGUAGCCACCA
DNA 1: CAATCTGAATTCCGGTCTCCC
DNA 2: TGGTGGCTACGACGGGATT
B5: GCUUCCU (DNA:RNA)
RNA: B4 RNA with A25G, G27U, U29C, C31U
DNA 1: CAATCTGAATTCCGGTCTCCC
DNA 2: TGGTGGCTACGACGGGATT
B6: CAGGAAG (DNA:RNA)
RNA: B1 RNA with U26A, A27G, G29A, U31G
DNA 1: CAATCTGAATTCCGGTCTCCC
DNA 2: TGGTGGCTACGACGGGATT
B7: GGCGCCG (DNA:RNA)
RNA: B4 RNA with A25G, C26G, G27C, U28G, U29C, C31G
DNA 1: CAATCTGAATTCCGGTCTCCC
DNA 2: TGGTGGCTACGACGGGATT
B8: UCGUCGC (DNA:RNA)
RNA: B4 RNA with A25U, U29C, C30G
DNA 1: CAATCTGAATTCCGGTCTCCC
DNA 2: TGGTGGCTACGACGGGATT
B9: UGGCCCA (DNA:RNA)
RNA: B4 RNA with A25U, C26G, U28C, U29C, C31A
DNA 1: CAATCTGAATTCCGGTCTCCC
DNA 2: TGGTGGCTACGACGGGATT
B10: UCGCUGU (DNA:RNA)
RNA: B4 RNA with A25U, U28C, C30G, C31U
DNA 1: CAATCTGAATTCCGGTCTCCC
DNA 2: TGGTGGCTACGACGGGATT
B11: AUUCGGG (DNA:RNA)
RNA: B1 RNA with C25A, A27U, G28C, A30G, U31G
DNA 1: CAATCTGAATTCCGGTCTCCC
DNA 2: TGGTGGCTACGACGGGATT
B12: CUUUCCU (DNA:RNA)
RNA: B1 RNA with A27U, G28U, G29C, A30C
DNA 1: CAATCTGAATTCCGGTCTCCC
DNA 2: TGGTGGCTACGACGGGATT
B13: UGUAGAU (DNA:RNA)
RNA: B1 RNA with C25U, U26G, A27U, G28A
DNA 1: CAATCTGAATTCCGGTCTCCC
DNA 2: TGGTGGCTACGACGGGATT
B14: GGAGGUG (DNA:RNA)
RNA: B1 RNA with C25G, U26G, A30U, U31G
DNA 1: CAATCTGAATTCCGGTCTCCC
DNA 2: TGGTGGCTACGACGGGATT
B15: AAUGGUC (DNA:RNA)
RNA: B4 RNA with C26A, G27U, U28G, U29G, C30U
DNA 1: CAATCTGAATTCCGGTCTCCC
DNA 2: TGGTGGCTACGACGGGATT
B16: AAUUGUC (DNA:RNA)
RNA: B4 RNA with C26A, G27U, U29G, C30U
DNA 1: CAATCTGAATTCCGGTCTCCC
DNA 2: TGGTGGCTACGACGGGATT
B17: GAAGUUU (DNA:RNA)
RNA: B1 RNA with C25G, U26A, G29U, A30U
DNA 1: CAATCTGAATTCCGGTCTCCC
DNA 2: TGGTGGCTACGACGGGATT
B18: GAGAUUA (DNA:RNA)
RNA: B4 RNA with A25G, C26A, U28A, C30U, C31A
DNA 1: CAATCTGAATTCCGGTCTCCC
DNA 2: TGGTGGCTACGACGGGATT
B19: CUUCUCA (DNA:RNA)
RNA: B4 RNA with A25C, C26U, G27U, U28C, C31A
DNA 1: CAATCTGAATTCCGGTCTCCC
DNA 2: TGGTGGCTACGACGGGATT
B20: GGUUGGU (DNA:RNA)
RNA: B1 RNA with C25G, U26G, A27U, G28U, A30G
DNA 1: CAATCTGAATTCCGGTCTCCC
DNA 2: TGGTGGCTACGACGGGATT
B21: CCGGUCG (DNA:RNA)
RNA: B4 RNA with A25C, U28G, C31G
DNA 1: CAATCTGAATTCCGGTCTCCC
DNA 2: TGGTGGCTACGACGGGATT
B22: ACAAAGG (DNA:RNA)
RNA: B4 RNA with G27A, U28A, U29A, C30G, C31G
DNA 1: CAATCTGAATTCCGGTCTCCC
DNA 2: TGGTGGCTACGACGGGATT
B23: UAUGCGC (DNA:RNA)
RNA: B4 RNA with A25U, C26A, G27U, U28G, U29C, C30G
DNA 1: CAATCTGAATTCCGGTCTCCC
DNA 2: TGGTGGCTACGACGGGATT
B24: GAUGUAU (DNA:RNA)
RNA: B1 RNA with C25G, U26A, A27U, G29U
DNA 1: CAATCTGAATTCCGGTCTCCC
DNA 2: TGGTGGCTACGACGGGATT
B25: UAGGAGC (DNA:RNA)
RNA: B4 RNA with A25U, C26A, U28G, U29A, C30G
DNA 1: CAATCTGAATTCCGGTCTCCC
DNA 2: TGGTGGCTACGACGGGATT
B26: UCAAUCC (DNA:RNA)
RNA: B4 RNA with A25U, G27A, U28A
DNA 1: CAATCTGAATTCCGGTCTCCC
DNA 2: TGGTGGCTACGACGGGATT
B27: UUAAAGC (DNA:RNA)
RNA: B1 RNA with C25U, G28A, G29A, A30G, U31C
DNA 1: CAATCTGAATTCCGGTCTCCC
DNA 2: TGGTGGCTACGACGGGATT
B28: CCACUCG (DNA:RNA)
RNA: B4 RNA with A25C, G27A, U28C, C31G
DNA 1: CAATCTGAATTCCGGTCTCCC
DNA 2: TGGTGGCTACGACGGGATT
B29: ACGUCCC (DNA:RNA)
RNA: B4 RNA with U29C
DNA 1: CAATCTGAATTCCGGTCTCCC
DNA 2: TGGTGGCTACGACGGGATT
B30: AUUUAAA (DNA:RNA)
RNA: B4 RNA with C26U, G27U, U29A, C30A, C31A
DNA 1: CAATCTGAATTCCGGTCTCCC
DNA 2: TGGTGGCTACGACGGGATT
B31: UCCCCGA (DNA:RNA)
RNA: B4 RNA with A25U, G27C, U28C, U29C, C30G, C31A
DNA 1: CAATCTGAATTCCGGTCTCCC
DNA 2: TGGTGGCTACGACGGGATT

Each binder was assayed against T1, RBFOX1 RRM RbFoxmut (Fox-RRM*) (assay: EMSA; HiTS-Eq, 1 nM pool, 10 min; buffer printed only for the single-RNA assays: 10 mM Tris pH 7.5, 150 mM NaCl, 3.4 mM EDTA, 0.001% NP-40, 30 C). Settings: tags: His6 N-terminal (pET28a); label: 5' 32P.
In short: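 A pool of RNA with 7 randomized nucleotides, 5′-radiolabelled and with DNA-annealed flanks, was equilibrated at 1 nM for 10 min in 50 µL with purified RbFox RRM, wild type or mutant, across increasing protein concentrations. Free RNA was separated by 8% native PAGE, excised, reverse-transcribed, barcoded by PCR and sequenced. Relative association constants were obtained from read-count changes of each RNA species versus the control reaction and normalised to the cognate motif.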

Row | Binder | binding signal
1 | B1 | 0.0638 KA relative to UGCAUGU
2 | B2 | 0.103 KA relative to UGCAUGU
3 | B3 | 0.11 KA relative to UGCAUGU
4 | B4 | 0.0605 KA relative to UGCAUGU
5 | B5 | 0.0793 KA relative to UGCAUGU
6 | B6 | 0.126 KA relative to UGCAUGU
7 | B7 | 0.0987 KA relative to UGCAUGU
8 | B8 | 0.0875 KA relative to UGCAUGU
9 | B9 | 0.0677 KA relative to UGCAUGU
10 | B10 | 0.105 KA relative to UGCAUGU
11 | B11 | 0.0737 KA relative to UGCAUGU
12 | B12 | 0.0622 KA relative to UGCAUGU
13 | B13 | 0.109 KA relative to UGCAUGU
14 | B14 | 0.142 KA relative to UGCAUGU
15 | B15 | 0.1 KA relative to UGCAUGU
16 | B16 | 0.189 KA relative to UGCAUGU

Row | Binder | binding signal
17 | B17 | 0.0901 KA relative to UGCAUGU
18 | B18 | 0.151 KA relative to UGCAUGU
19 | B19 | 0.121 KA relative to UGCAUGU
20 | B20 | 0.139 KA relative to UGCAUGU
21 | B21 | 0.112 KA relative to UGCAUGU
22 | B22 | 0.0691 KA relative to UGCAUGU
23 | B23 | 0.103 KA relative to UGCAUGU
24 | B24 | 0.143 KA relative to UGCAUGU
25 | B25 | 0.0744 KA relative to UGCAUGU
26 | B26 | 0.0405 KA relative to UGCAUGU
27 | B27 | 0.0803 KA relative to UGCAUGU
28 | B28 | 0.109 KA relative to UGCAUGU
29 | B29 | 0.056 KA relative to UGCAUGU
30 | B30 | 0.144 KA relative to UGCAUGU
31 | B31 | 0.0927 KA relative to UGCAUGU

— article PMC9911399, “Two distinct binding modes provide the RNA-binding protein RbFox with extraordinary sequence specificity”
